Results: the supplement of paper PMC4967469
The IC50 comes from the fitted curve, where viability falls to half of the control; where the fit passes the top or lowest dose, that dose stands as a limit. AUC is the area under the same curve over the 256-fold range up to the top dose, as a fraction; the more sensitive the line, the further below 1. An inferred top dose was derived from the fitted curves, not read from the paper.

What was measured:
Assay in all cases: Viability of human cancer cell lines after 72 h of drug (GDSC screen)
[1] = compound: C=CC(=O)N1CCc2ccc(-n3c(=O)ccc4cnc5ccc(-c6cnn(C)c6)cc5c43)cc21 [QL-XII-47]; conditions: top dose 10.24 µM; top dose inferred
Description: (§1)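 Human cancer cell lines in 384-well plates, medium with 10% serum, drug for 72 h over a 256-fold dose range (nine 2-fold or five 4-fold steps up to the top dose). Adherent lines were fixed and stained with the nucleic acid dye Syto60, suspension lines read with resazurin; signal relative to control wells, capped at 0 and 100%. One two-parameter sigmoid per drug and line, fitted in a mixed model over all curves with the slope shared within a line.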

[2] = compound: CCN1CCC(n2cc(CNc3cc(Cl)c4ncc(C#N)c(Nc5ccc(F)c(Cl)c5)c4c3)nn2)CC1 [KIN001-266]; conditions: top dose 20 µM; top dose inferred
Description: as §1

[3] = compound: COc1ccc(-c2cc3nccn3c(Nc3ncccc3C(N)=O)n2)cc1OC [BAY 61-3606]; conditions: top dose 8 µM; top dose inferred
Description: as §1

[4] = compound: O=C1/C(=C/c2cccs2)CC/C1=C\c1cccs1 [CCT007093]; conditions: top dose 6.6 µM; top dose inferred
Description: as §1

| Cell Line | AUC [1] | IC50 [1] [µM] | AUC [2] | IC50 [2] [µM] | AUC [3] | IC50 [3] [µM] | AUC [4] | IC50 [4] [µM] |
| --- | --- | --- | --- | --- | --- | --- | --- | --- |
| Caov-4 (ovary, adherent) | 0.498 | 0.63 | 0.813 | 17.8 | 0.947 | > 8 | 0.98 | > 6.6 |
| ES1 (Ewing sarcoma, adherent) | 0.505 | 0.661 | 0.867 | 17.5 | 0.727 | 2.18 | 0.985 | > 6.6 |
| LXF-289 (lung adenocarcinoma, adherent) | 0.687 | 2.12 | 0.873 | 18.7 | 0.881 | > 8 | 0.986 | > 6.6 |
| LU-139 (small cell lung carcinoma, suspension) | 0.306 | 0.155 | 0.858 | > 20 | 0.945 | > 8 | 0.921 | > 6.6 |
| HOS (osteosarcoma, adherent) | 0.987 | > 10.2 | 0.98 | > 20 | 0.793 | 2.99 | 0.976 | > 6.6 |
| NCI-H1581 (large cell lung carcinoma, semi-adherent) | 0.833 | 5.87 | 0.932 | > 20 | 0.927 | > 8 | 0.984 | > 6.6 |
| DG-75 (Burkitt lymphoma, suspension) | 0.74 | 3.13 | 0.868 | 18.7 | 0.958 | > 8 | 0.946 | > 6.6 |
| MS751 (cervix, adherent) | 0.847 | 6.65 | 0.984 | > 20 | 0.907 | > 8 | 0.99 | > 6.6 |
| H2795 (mesothelioma, adherent) | 0.567 | 0.973 | 0.877 | 19.5 | 0.916 | > 8 | 0.986 | > 6.6 |
| DOK (head and neck, adherent) | 0.715 | 3.59 | 0.953 | > 20 | 0.975 | > 8 | 0.88 | > 6.6 |
| HSC-2 (head and neck, adherent) | 0.701 | 2.24 | 0.964 | > 20 | 0.808 | 3.76 | 0.969 | > 6.6 |
| HL-60 (acute myeloid leukaemia, suspension) | 0.763 | 3.34 | 0.884 | 17.7 | 0.887 | 7.37 | 0.985 | > 6.6 |
| NCI-H2405 (lung adenocarcinoma, adherent) | 0.844 | 8.48 | 0.929 | > 20 | 0.859 | 7.85 | 0.961 | > 6.6 |
| Farage (B-cell lymphoma, suspension) | 0.448 | 0.475 | 0.891 | 15.9 | 0.576 | 0.777 | 0.991 | > 6.6 |
| IHH-4 (thyroid, semi-adherent) | 0.671 | 1.72 | 0.889 | 15 | 0.505 | 0.513 | 0.992 | > 6.6 |
| DSH1 (bladder, adherent) | 0.815 | 5.32 | 0.98 | > 20 | 0.988 | > 8 | 0.955 | > 6.6 |
| CTV-1 (acute myeloid leukaemia, suspension) | 0.51 | 0.677 | 0.86 | 11.7 | 0.697 | 1.57 | 0.992 | > 6.6 |
| SKG-IIIa (cervix, adherent) | 0.982 | > 10.2 | 0.972 | > 20 | 0.949 | > 8 | 0.966 | > 6.6 |
| NCI-H841 (small cell lung carcinoma, adherent) | 0.621 | 1.38 | 0.959 | > 20 | 0.988 | > 8 | 0.988 | > 6.6 |
| C3A (liver, adherent) | 0.922 | > 10.2 | 0.988 | > 20 | 0.817 | 4.69 | 0.984 | > 6.6 |
| MZ1-PC (pancreas, adherent) | 0.61 | 1.38 | 0.819 | 15.1 | 0.77 | 3.77 | 0.975 | > 6.6 |

| Cell Line | AUC [1] | IC50 [1] [µM] | AUC [2] | IC50 [2] [µM] | AUC [3] | IC50 [3] [µM] | AUC [4] | IC50 [4] [µM] |
| --- | --- | --- | --- | --- | --- | --- | --- | --- |
| ME-180 (cervix, adherent) | 0.479 | 0.558 | 0.839 | 14.5 | 0.968 | > 8 | 0.977 | > 6.6 |
| Daoy (medulloblastoma, adherent) | 0.627 | 1.39 | 0.926 | > 20 | 0.92 | > 8 | 0.988 | > 6.6 |
| PANC-02-03 (pancreas, adherent) | 0.818 | 7.3 | 0.781 | 10 | 0.926 | > 8 | 0.964 | > 6.6 |
| NB14 (neuroblastoma, adherent) | 0.785 | 4.12 | 0.782 | 7.83 | 0.666 | 1.41 | 0.982 | > 6.6 |
| SAT (head and neck, adherent) | 0.955 | > 10.2 | 0.875 | > 20 | 0.911 | > 8 | 0.899 | > 6.6 |
| HuO9 (osteosarcoma, adherent) | 0.867 | > 10.2 | 0.976 | > 20 | 0.943 | > 8 | 0.975 | > 6.6 |
| NCI-H1437 (lung adenocarcinoma, adherent) | 0.577 | 1.05 | 0.882 | > 20 | 0.724 | 2.23 | 0.903 | > 6.6 |
| SNU-449 (liver, adherent) | 0.681 | 2.16 | 0.868 | > 20 | 0.789 | 3.91 | 0.976 | > 6.6 |
| DMS-79 (small cell lung carcinoma, suspension) | 0.961 | > 10.2 | 0.975 | > 20 | 0.966 | > 8 | 0.987 | > 6.6 |
| MLMA (hairy cell leukaemia, semi-adherent) | 0.748 | 3.33 | 0.874 | 19.7 | 0.64 | 1.22 | 0.98 | > 6.6 |
| RKO (large intestine, adherent) | 0.503 | 0.653 | 0.87 | 16.3 | 0.771 | 2.85 | 0.988 | > 6.6 |
| HuCCT1 (biliary tract, adherent) | 0.515 | 0.707 | 0.792 | 10.2 | 0.857 | 7.7 | 0.958 | > 6.6 |
| 8-MG-BA (glioma, adherent) | 0.438 | 0.437 | 0.976 | > 20 | 0.901 | > 8 | 0.94 | > 6.6 |
| KYSE-150 (oesophagus, adherent) | 0.829 | 6.03 | 0.917 | > 20 | 0.846 | 5.46 | 0.978 | > 6.6 |
| OE33 (oesophagus, adherent) | 0.92 | > 10.2 | 0.833 | 16.4 | 0.802 | 4.84 | 0.984 | > 6.6 |
| SK-MEL-1 (melanoma, suspension) | 0.933 | > 10.2 | 0.856 | 12.8 | 0.955 | > 8 | 0.993 | > 6.6 |
| Mo-T (hairy cell leukaemia, suspension) | 0.53 | 0.773 | 0.885 | > 20 | 0.852 | 6.39 | 0.987 | > 6.6 |
| COLO-678 (large intestine, semi-adherent) | 0.84 | > 10.2 | 0.903 | > 20 | 0.94 | > 8 | 0.974 | > 6.6 |
| AU565 (breast, adherent) | 0.797 | 5.45 | 0.859 | 19.8 | 0.849 | – | 0.759 | 2.54 |
| HCC-827 (lung adenocarcinoma, adherent) | 0.919 | > 10.2 | 0.822 | 14 | 0.929 | > 8 | 0.981 | > 6.6 |
| HCC1395 (breast, adherent) | 0.974 | > 10.2 | 0.86 | > 20 | 0.83 | 6.45 | 0.981 | > 6.6 |

| Cell Line | AUC [1] | IC50 [1] [µM] | AUC [2] | IC50 [2] [µM] | AUC [3] | IC50 [3] [µM] | AUC [4] | IC50 [4] [µM] |
| --- | --- | --- | --- | --- | --- | --- | --- | --- |
| U-698-M (B-cell leukaemia, suspension) | 0.827 | 6.28 | 0.64 | 3.04 | 0.626 | 1.11 | 0.987 | > 6.6 |
| NCI-H1304 (small cell lung carcinoma, suspension) | 0.899 | > 10.2 | 0.934 | > 20 | 0.85 | 6.8 | 0.985 | > 6.6 |
| MDA-MB-415 (breast, adherent) | 0.973 | > 10.2 | 0.975 | > 20 | 0.971 | > 8 | 0.975 | > 6.6 |
| PANC-04-03 (pancreas, adherent) | 0.837 | > 10.2 | 0.938 | > 20 | 0.879 | > 8 | 0.867 | > 6.6 |
| NCI-H2029 (small cell lung carcinoma, adherent) | 0.748 | 3.03 | 0.988 | > 20 | 0.972 | > 8 | 0.991 | > 6.6 |
| A375 (melanoma, adherent) | 0.434 | 0.436 | 0.888 | 15.6 | 0.629 | 1.06 | 0.988 | > 6.6 |
| ES-2 (ovary, adherent) | 0.671 | 1.79 | 0.885 | 17.2 | 0.957 | > 8 | 0.99 | > 6.6 |
| ROS-50 (B-cell leukaemia, suspension) | 0.917 | > 10.2 | 0.791 | 11.9 | 0.884 | > 8 | 0.944 | > 6.6 |
| HA7-RCC (kidney, adherent) | 0.731 | 3.15 | 0.824 | 13.6 | 0.93 | > 8 | 0.984 | > 6.6 |
| DAN-G (pancreas, adherent) | 0.929 | > 10.2 | 0.909 | > 20 | 0.992 | > 8 | 0.991 | > 6.6 |
| KMH-2 (thyroid, adherent) | 0.633 | 1.43 | 0.972 | > 20 | 0.53 | 0.599 | 0.99 | > 6.6 |
| 8505C (thyroid, adherent) | 0.755 | 3.65 | 0.825 | 13 | 0.701 | 1.91 | 0.983 | > 6.6 |
| LC-2-ad (lung adenocarcinoma, adherent) | 0.847 | 7.8 | 0.852 | 16.1 | 0.691 | 1.74 | 0.984 | > 6.6 |
| TE-15 (oesophagus, suspension) | 0.622 | 1.46 | 0.766 | 8.31 | 0.609 | 1.04 | 0.941 | > 6.6 |
| H2804 (mesothelioma, adherent) | 0.857 | 9.66 | 0.966 | > 20 | 0.825 | 5.46 | 0.97 | > 6.6 |
| HCC-15 (lung squamous cell carcinoma, adherent) | 0.802 | 6.78 | 0.913 | > 20 | 0.976 | > 8 | 0.965 | > 6.6 |
| WM278 (melanoma, adherent) | 0.763 | 4.14 | 0.82 | 13.4 | 0.809 | 4.85 | 0.965 | > 6.6 |
| WM793B (melanoma, adherent) | 0.984 | > 10.2 | 0.866 | > 20 | 0.663 | 1.5 | 0.983 | > 6.6 |
| NUGC-3 (stomach, adherent) | 0.872 | > 10.2 | 0.917 | > 20 | 0.904 | > 8 | 0.965 | > 6.6 |
